# Over roughly 33,000 sequences, “E-score (-0.5 to 0.5)” has its median near -0.054; the highest 2% begin near 0.35. This is one part of the list.
# Molecular target: T1, Stb5 (UniProt P38699)
# T1 sequence: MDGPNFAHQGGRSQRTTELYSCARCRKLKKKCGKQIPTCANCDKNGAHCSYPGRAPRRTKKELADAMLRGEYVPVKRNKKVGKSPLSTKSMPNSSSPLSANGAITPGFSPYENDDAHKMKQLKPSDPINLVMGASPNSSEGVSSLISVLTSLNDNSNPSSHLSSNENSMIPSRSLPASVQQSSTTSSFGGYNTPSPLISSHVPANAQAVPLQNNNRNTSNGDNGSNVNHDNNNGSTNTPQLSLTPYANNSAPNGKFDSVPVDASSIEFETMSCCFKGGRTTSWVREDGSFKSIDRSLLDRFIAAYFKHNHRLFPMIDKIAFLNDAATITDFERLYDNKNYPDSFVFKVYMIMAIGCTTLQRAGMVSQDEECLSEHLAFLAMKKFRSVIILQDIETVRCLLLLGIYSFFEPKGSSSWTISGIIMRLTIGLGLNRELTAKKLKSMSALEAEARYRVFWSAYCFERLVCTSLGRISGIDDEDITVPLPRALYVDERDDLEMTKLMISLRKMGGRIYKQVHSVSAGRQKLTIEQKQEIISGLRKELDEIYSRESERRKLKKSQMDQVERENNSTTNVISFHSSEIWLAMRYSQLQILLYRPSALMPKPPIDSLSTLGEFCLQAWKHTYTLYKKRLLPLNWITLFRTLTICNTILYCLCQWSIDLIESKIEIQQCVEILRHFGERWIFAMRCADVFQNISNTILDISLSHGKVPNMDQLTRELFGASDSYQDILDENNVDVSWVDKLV
# Experiment: PBM E-score (8-mer binding enrichment) (E-score (-0.5 to 0.5)); higher = stronger / more preferred TF binding; most listed sequences are background and not binding sites
# Conditions: protein concentration: 200 nM; construct: GST-full length
# Description: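 Universal 'all 10-mer' protein binding microarrays (Agilent AMADID 015681) probed with GST-tagged S. cerevisiae TFs (full-length or DBD) made by in vitro transcription/translation (PURExpress), about 100-200 nM. Bound TF was detected with fluorescent anti-GST. Each ungapped 8-mer (which stands for itself and its reverse complement) is scored by the PBM enrichment score (E-score), a modified Wilcoxon-Mann-Whitney statistic from -0.5 to +0.5, computed with the Universal PBM Analysis Suite. Scale: above 0.35 generally sequence-specific binding.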
row,Sequence,PBM E-score
1,GCTGGTCA,-0.189
2,AGAGGTGC,-0.0802
3,CTAGATGA,-0.118
4,CAGGCACA,-0.271
5,GTAATAAC,0.0252
6,GAGGTTTA,0.101
7,GTGCTGGA,-0.186
8,ATGCCGGC,0.301
9,GCGACCGC,0.206
10,ACGCTAAC,0.0108
11,GCAAGATA,0.0536
12,CCTGTGGA,-0.356
13,ACCCCGCG,0.367
14,CCCCCAAC,-0.145
15,GTAGCAGA,-0.176
16,AAGGAAGC,-0.149
17,TAGAACCA,-0.175
18,GACGCCAC,0.00899
19,ATCGGACC,0.398
20,TACCATGA,-0.264
21,AGGGCCCG,0.165
22,GTCTTTCA,0.133

row,Sequence,PBM E-score
1,ACCAATCA,-0.173
2,ACAGACAT,-0.0713
3,ACGTTTGC,-0.198
4,CCGTCATA,0.264
5,CAATTAGC,0.00491
6,ACACTTTA,-0.24
7,CTGATAAG,-0.064
8,ACTAACTC,0.0164
9,ACGTCGAT,-0.156
10,CCCCCACA,-0.114
11,CCACGCCC,0.101
12,ACTTGTCT,-0.198
13,ATTCTCCA,-0.0892
14,AGACGGGA,0.202
15,CTGCCGAC,0.15
16,CAACCTGG,-0.278
17,CCCCGGAA,0.0442
18,ACATAAAA,0.0923
19,AAATCAGA,0.038
20,CCTACCCC,0.138
21,AACAGTGG,-0.0751
22,ATCTTTCG,-0.135

row,Sequence,PBM E-score
1,GATAGTAC,-0.074
2,ACAATGAG,-0.13
3,CCACGCTC,-0.191
4,ATCGACAC,-0.358
5,ACGGTGAC,0.297
6,CTTCACAA,-0.19
7,GCGAAGTA,-0.132
8,CACGGTGG,0.0528
9,ACCGGGGC,0.359
10,AAGCGGAC,0.352
11,CGAGAAAC,0.0031
12,ATCGGGAG,0.148
13,AACCGCTT,0.076
14,ATTCGCTG,-0.0736
15,GACCGCGC,0.246
16,GAATTCGA,0.0085
17,CTTATGAC,-0.0229
18,AGCATGTA,-0.21
19,GCTGAGAA,-0.0927
20,CGTTATTC,0.05
21,AGTGTTCC,-0.0844
22,GGGGACCA,-0.0997

row,Sequence,PBM E-score
1,CCATGCAC,0.00841
2,CACCGAGC,0.307
3,GGTATACC,0.185
4,ACTTTTCC,0.111
5,TGTTGCAA,0.0817
6,ATAGAGAG,-0.183
7,TATGAGCA,-0.156
8,GTGTTCAA,0.0193
9,GAGCCAGC,0.00015
10,ACCGAGGT,0.0858
11,CGAATAAC,0.0917
12,CCCCCGAC,0.349
13,CCTCACCG,-0.0129
14,CTCTCTTA,-0.152
15,CGAAGTTA,0.0169
16,AAAGCGGC,0.253
17,AGACGTGG,-0.117
18,ACTTTAAA,0.104
19,AGTGCTCA,-0.155
20,CGATTATA,0.131
